In PubChem BioAssay AID504845 (National Center for Advancing Translational Sciences (NCATS), 2011):
Values joined by “and” are separate entries in the source; they are usually repeats but may differ in a detail not shown here. Equal values may be shown once. Among all 390,000 compounds or so, about 150 (0.038%) were called active. The shares of active, inactive and inconclusive entries below differ from those in the screen. Calls come from the whole dose curve; as a rule, active = well fitted inhibition curve with a large enough effect; inconclusive = small, poorly fitted or top-dose-only effect; inactive = no such curve, though single readings can be large or run the other way. Potencies beside an inconclusive call are fits to weak or partial responses and may not hold up. Where a structure was tested more than once in an assay, its records may differ in their call.

The compounds below were run against Regulator of G-protein signaling 4 (Homo sapiens) (UniProt P49798) (assay: Inhibitors of Regulator of G Protein Signaling (RGS) 4: qHTS). Conditions: Transcreener GDP fluorescence polarization, RGS4-accelerated GTP hydrolysis; series mostly up to 114 µM.
Chain of UniProt P49798 (P49798 whole entry, looked up): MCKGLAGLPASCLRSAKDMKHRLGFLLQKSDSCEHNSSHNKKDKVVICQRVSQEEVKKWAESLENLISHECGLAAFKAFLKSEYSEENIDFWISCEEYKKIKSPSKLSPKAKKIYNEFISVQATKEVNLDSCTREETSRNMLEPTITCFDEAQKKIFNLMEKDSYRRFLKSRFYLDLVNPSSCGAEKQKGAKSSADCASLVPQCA
Method in brief: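 MLSMR compounds (23 nl, pin-transferred) preincubated 10 min at room temperature with a 500nM (2x) first reagent, then RGS4 at 900nM (2x) plus Transcreener GDP mix added; fluorescence polarization (620/688 nm) read before and after 90 min at 30 °C.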
Note: nearly all actives have a fitted effect of over 75% in size.
Potency is the fitted concentration of half-maximal effect; tags give direction and shape of the fitted curve.

| Structure (SMILES) | Potency |
| --- | --- |
| O=C(O)CCn1cc(C=C2C(=O)NC(=S)NC2=O)c(-c2cc3ccccc3oc2=O)n1 | inconclusive: 56.2 µM [inhibitor, partial curve, poor fit] |
| CN1C(=O)NC(=O)/C(=C/c2ccc([N+](=O)[O-])o2)C1=O | inconclusive: 20 µM [inhibitor, full curve, poor fit] |
| CCN(CC)c1ccc(N=Cc2c(O)n(-c3cc(OC)ccc3OC)c(=O)[nH]c2=O)cc1 | inactive |
| Cn1c[n+](C)cc1C(O)c1ccccc1 (stereo not given) | inconclusive: 100 µM [inhibitor, single point] |
| CCOC(=O)c1c(C=O)c2ccccc2n1Cc1ccccc1 | inactive |
| COc1cccc(N2C(=O)NC(=O)/C(=C/c3ccc([N+](=O)[O-])s3)C2=O)c1 | inconclusive: 39.8 µM [inhibitor, partial curve, poor fit] |
| O=C(COc1ccc(Br)cc1)N1CCN(Cc2ccncc2)CC1 | inactive |
| COc1ccc(/C=C2\C(=O)NC(=O)N(Cc3ccccc3)C2=O)c(OC)c1OC | inconclusive: 79.4 µM [inhibitor, partial curve, poor fit] |
| Cc1ccc(C[N+](C)(C)C)o1 | inconclusive: 2.12 µM [inhibitor, partial curve, poor fit] |
| CN(C)c1ccc(/C=C2/C(=O)NC(=O)N(Cc3ccco3)C2=O)cc1 | inconclusive: 39.8 µM [inhibitor, partial curve, poor fit] |
| CCCCC/C=C\C=C\[C@H](CCCCCCCC(=O)O)OO | inconclusive: 37.7 µM [inhibitor, partial curve, poor fit] |
| CC(C)(Cc1c[nH]c2ccc(Cl)cc12)NCCOc1ccccc1OCC1CC1 | inconclusive: 0.0067 µM [inhibitor, full curve, poor fit] |
| CCCCn1c(O)c(C(C)=NCc2ccc3c(c2)OCO3)c(=O)[nH]c1=O | inconclusive: 89.1 µM [inhibitor, single point] |
| Nc1nc2ccc(Cl)cc2c2nc(-c3ccco3)nn12 | inconclusive: 0.67 µM [inhibitor, full curve, poor fit] |
| O=C1NC(=O)C(=Cc2ccc3ccccc3c2)C(=O)N1 | inconclusive: 44.7 µM [inhibitor, partial curve, poor fit] |
| CC[n+]1c(/C=C/C=C/c2ccc(N(C)C)cc2)sc2ccccc21 | inconclusive: 28.2 µM [inhibitor, full curve, poor fit] |
| O=C(Cc1ccccc1)N1CCN(Cc2ccccn2)CC1 | inconclusive: 89.1 µM [inhibitor, single point] |
| CCCN1CCc2cccc3c2[C@H]1Cc1ccc(O)c(O)c1-3 | inconclusive: 50.1 µM [inhibitor, partial curve, poor fit] and inconclusive: 1.5 µM [inhibitor, full curve, poor fit] |
| O=C(NC[P+](=O)O)OCc1ccccc1 | inactive |
| CNC(=O)c1cccn(Cc2cc(C(F)(F)F)cc(C(F)(F)F)c2)c1=O | inconclusive: 28.2 µM [inhibitor, full curve, poor fit] |

| Structure (SMILES) | Potency |
| --- | --- |
| CCNC(=S)NCCC1=c2ccccc2=N/C1=C\c1c(O)n(C)c(=O)n(C)c1=O | inconclusive: 20 µM [inhibitor, full curve, poor fit] |
| C/C(=N\Nc1cccc2ccccc12)c1c(O)n(Cc2ccccc2)c(=O)[nH]c1=O | inconclusive: 44.7 µM [inhibitor, partial curve, poor fit] |
| Cc1cccc(CN2CCN(c3ccc(Cl)cc3)CC2)c1 | inactive |
| O=C1NC(=O)N(c2ccc(Cl)cc2)C(=O)/C1=C/c1coc2ccc(O)cc2c1=O | inconclusive: 17.8 µM [inhibitor, full curve, poor fit] |
| O=C1/C(=C\c2ccc(Cl)c(Cl)c2)N2CCC1CC2 | inconclusive: 31.6 µM [inhibitor, full curve, poor fit] |
| CC(=O)Nc1ccccc1C(=O)OCc1cccc(F)c1 | inactive |
| Cc1ccc(/C=C2\C(=O)NC(=S)N(c3ccc(F)cc3)C2=O)s1 | inconclusive: 17.8 µM [inhibitor, full curve, poor fit] |
| COc1cc(N2CCOCC2)ccc1/C=C1\C(=O)NC(=O)N(C2CCCCC2)C1=O | inconclusive: 50.1 µM [inhibitor, partial curve, poor fit] |
| C=CCN1C(=O)NC(=O)/C(=C/c2ccc(OCC(=O)Nc3ccc(C)cc3)cc2)C1=O | inconclusive: 39.8 µM [inhibitor, partial curve, poor fit] |
| C=C1C(=O)O[C@@H]2C[C@@H](C)[C@H]3C=CC(=O)[C@]3(O)C[C@@H]12 | inconclusive: 79.4 µM [inhibitor, partial curve, poor fit] |
| c1ccc2c(c1)[I+]c1ccccc1-2 | inconclusive: 26.7 µM [inhibitor, partial curve] |
| CN(C)c1ccc(NC(=O)Oc2ccccc2)cc1 | inconclusive: 89.1 µM [inhibitor, partial curve, poor fit] |
| O=C1CC=C2C3CC4N(CCC45c4cc(O)c(O)cc4N1C25)CC3=CCBr (stereo not given) | inactive |
| N#Cc1c(/N=C/C2C(=O)NC(=S)NC2=O)sc2c1CCCC2 | inconclusive: 50.1 µM [inhibitor, partial curve, poor fit] |
| O=C1NC(=O)N(c2ccc3c(c2)OCO3)C(=O)/C1=C/c1cccs1 | inconclusive: 35.5 µM [inhibitor, full curve, poor fit] |
| CCOC(=O)c1c(-n2c(C)cc(/C=C3\C(=O)NC(=O)N(C)C3=O)c2C)sc2c1CCCC2 | inconclusive: 70.8 µM [inhibitor, single point] |
| COc1ccc(OCC(=O)N2CCN(Cc3ccc(SC)cc3)CC2)cc1 | inconclusive: 56.2 µM [inhibitor, partial curve, poor fit] |
| Cc1cc(C=C2C(=O)N(C)C(=S)N(C)C2=O)c(C)n1-c1cccnc1 | inconclusive: 50.1 µM [inhibitor, partial curve, poor fit] |
| COc1ccc2c(c[n+](C)c3c4cc5c(cc4ccc23)OCO5)c1OC | active: 6.7 µM |
| N#CCCn1cc(C=C2C(=O)NC(=O)NC2=O)c(-c2ccccc2)n1 | inconclusive: 50.1 µM [inhibitor, partial curve, poor fit] |

| Structure (SMILES) | Potency |
| --- | --- |
| C=C1C(=O)O[C@H]2[C@H]1[C@H](OC(=O)CC(=O)O[C@@H]1C[C@@H](C)[C@@H]3C=CC(=O)[C@@]3(C)[C@H]3OC(=O)C(=C)[C@H]13)C[C@@H](C)[C@H]1C=CC(=O)[C@]12C | inconclusive: 35.5 µM [inhibitor, full curve, poor fit] |
| Cn1ncnc2c(=O)n(C)c(=O)nc1-2 | inactive |
| O=C1NC(=O)N(CCc2ccc(F)cc2)C(=O)/C1=C/c1ccco1 | inconclusive: 31.6 µM [inhibitor, full curve, poor fit] |
| COP(=S)(OC)SCN1C(=O)c2ccccc2C1=O | inconclusive: 39.8 µM [inhibitor, partial curve, poor fit] |
| O=c1[nH]c(=S)n(CCC2=CCCCC2)c(O)c1/C=N/Nc1ccccc1 | inconclusive: 50.1 µM [inhibitor, partial curve, poor fit] |
| NS(=O)(=O)c1cc(C(=O)OCC(=O)Nc2ccc3[nH]c(=O)[nH]c3c2)ccc1Cl | inconclusive: 79.4 µM [inhibitor, partial curve, poor fit] |
| CCN(CC)c1ccc(CNCCc2ccccc2F)cc1 | inactive |
| CCOCCc1c(O)[nH]c(=S)[nH]c1=O | inconclusive: 17.8 µM [inhibitor, partial curve, poor fit] |
| COc1ccc(N2C(=O)/C(=C/c3ccc(C)o3)C(=O)NC2=S)cc1 | inconclusive: 28.2 µM [inhibitor, full curve, poor fit] |
| O=C(O)CC1OCC=C2CN3CCC45C6=CC(=O)C(=O)C([N+](=O)[O-])=C6NC4C1C2CC35 (stereo not given) | inconclusive: 50.1 µM [inhibitor, partial curve, poor fit] |
| COc1ccc(N2C(=O)NC(=O)/C(=C/c3ccc([N+](=O)[O-])s3)C2=O)cc1 | inconclusive: 50.1 µM [inhibitor, partial curve, poor fit] |
| Cc1ccc(-c2nc(N3CCOCC3)s[n+]2-c2ccccc2)cc1 | inconclusive: 100 µM [inhibitor, partial curve, poor fit] |
| C/C(=C\c1ccc(N(C)C)cc1)[N+](=O)[O-] | inconclusive: 56.2 µM [inhibitor, partial curve, poor fit] |
| C[n+]1c2ccccc2nc2ccc(NCCO)cc21 | inconclusive: 50.1 µM [inhibitor, partial curve, poor fit] |
| O=c1oc(Cl)c(Cl)c2ccccc12 | active: 10.6 µM |
| O=C1NC(=S)NC(=O)C1=Cc1ccc2c(c1)CCN2CCCCl | inconclusive: 31.6 µM [inhibitor, full curve, poor fit] |
| CC(C)n1cnc2c(C(=O)N[C@H]3CN4CCC3CC4)cc(Cl)cc21 | active: 4.74 µM |
| COc1ccccc1N1CCN(CCc2c[nH]c3cc4c(cc23)OCO4)CC1 | inconclusive: 100 µM [inhibitor, single point] |
| Cc1ccccc1N1C(=O)NC(=O)/C(=C\c2ccc3c(c2)CCCN3Cc2ccccc2)C1=O | inconclusive: 31.6 µM [inhibitor, full curve, poor fit] |
| O=C1NC(=S)NC(=O)C1=Cc1ccc(OCc2ccccc2)cc1 | inconclusive: 28.2 µM [inhibitor, full curve, poor fit] |
